Test results: the supplement of paper PMC12217912
The list shows a part of the results. The full chains were built here from the parent and the listed change. Inactive controls read about 0.05.

B1: TEV protease; numbered along this chain (parent)
chain: MGESLFKGPRDYNPISSSICHLTNESDGHTTSLYGIGFGPFIITNKHLFRRNNGTLVVQSLHGVFKVKDTTTLQQHLVDGRDMIIIRMPKDFPPFPQKLKFREPQREERICLVTTNFQTKSMSSMVSDTSCTFPSGDGIFWKHWIQTKDGQCGSPLVSTRDGFIVGIHSASNFTNTNNYFTSVPKNFMELLTNQEAQQWVSGWRLNADSVLWGGHKVFMVKPEEPFQPVKEATQL

Variants of: B1
Test: raw area under fraction-flipped curve 0-4 h after induction (AUC4h, not background-subtracted), DNA-recorder readout of cleavage of the substrate (dimensionless); higher = more cleavage of the substrate by the protease variant
Settings: temperature: 34 °C; time window: 0-4 h after rhamnose induction
Protocol: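 In vivo DNA recorder in E. coli TOP10(DE3) ΔrhaA at 34 °C. Each TEVp single-site mutant (parent TEVp 0) is paired with a single-site variant of the 7-mer TEVs (canonical ENLYFQ|S). The substrate sits between flexible linkers in a Bxb1-sfGFP-TEVs-SsrA fusion, so cleavage stabilises Bxb1 and speeds flipping of a recombination array, read by NGS. The value is the raw area under the fraction-flipped curve over 0-4 h after rhamnose induction (AUC4h), with ≥20 reads per time point. It is not background-subtracted; inactive controls average about 0.047.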
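Also: Bxb1 expression induced with 0.2% (w/v) L-rhamnose at OD600 near 0.5, cultures sampled hourly, flipped fraction per protease–substrate barcode pair counted by paired-end Illumina sequencing.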

Variant	area with substrate ENLYAQS	area with substrate ENLYDQS	area with substrate ENLYKQS	area with substrate ENLYMQS	area with substrate ENLYQQS	area with substrate ENLYCQS	area with substrate ENLYEQS	area with substrate ENLYGQS	area with substrate ENLYHQS	area with substrate ENLYIQS	area with substrate ENLYLQS	area with substrate ENLYNQS	area with substrate ENLYPQS	area with substrate ENLYRQS	area with substrate ENLYSQS	area with substrate ENLYTQS	area with substrate ENLYVQS	area with substrate ENLYWQS	area with substrate ENLYYQS
MGESLFKGPRDYNPISSSICHLTNESDGHTTSLYGIGFGPFIITNKHLFRRNNGTLVVQSLHGVFKVKDTTTLQQHLVDGRDMIIIRMPKDFPPFPQKLKFREPQREERICLVTTNFQTKSMSSMVSDTSCTFPSGDGIFWKHWPQTKDGQCGSPLVSTRDGFIVGIHSASNFTNTNNYFTSVPKNFMELLTNQEAQQWVSGWRLNADSVLWGGHKVFMVKPEEPFQPVKEATQL [I145P]	0.0517	0.0541	0.0628	0.0579	0.0449														
MGESLFKGPRDYNPISSSICHLTNESDGHTTSLYGIGFGPFIITNKHLFRRNNGTLVVQSLHGVFKVKDTTTLQQHLVDGRDMIIIRMPKDFPPFPQKLKFREPQREERICLVTTNFQTKSMSSMVSDTSCTFPSGDGIFWKHWIQLKDGQCGSPLVSTRDGFIVGIHSASNFTNTNNYFTSVPKNFMELLTNQEAQQWVSGWRLNADSVLWGGHKVFMVKPEEPFQPVKEATQL [T147L]	0.0798	0.0547	0.0639	0.0561		0.0778	0.0611	0.0298	0.0632	0.0675	0.0723	0.0589	0.0614	0.0403	0.0721	0.0593	0.0715	0.0542	0.0739
MGESLFKGPRDYNPISSSICHLTNESDGHTTSLYGIGFGPFIITNKHLFRRNNGTLVVQSLHGVFKVKDTTTLQQHLVDGRDMIIIRMPKDFPPFPQKLKFREPQREERICLVTTNFQTKSMSSMVSDTSCTFPSGDGIFWKHWIQTKDGACGSPLVSTRDGFIVGIHSASNFTNTNNYFTSVPKNFMELLTNQEAQQWVSGWRLNADSVLWGGHKVFMVKPEEPFQPVKEATQL [Q151A]	0.0732	0.05	0.0259	0.0868	0.0459		0.0666	0.0491	0.0658	0.103		0.0537	0.0667	0.0722	0.067	0.0686	0.121		
MGESLFKGPRDYNPISSSICHLTNESDGHTTSLYGIGFGPFIITNKHLFRRNNGTLVVQSLHGVFKVKDTTTLQQHLVDGRDMIIIRMPKDFPPFPQKLKFREPQREERICLVTTNFQTKSMSSMVSDTSCTFPSGDGIFWKHWIQTKDGQCGQPLVSTRDGFIVGIHSASNFTNTNNYFTSVPKNFMELLTNQEAQQWVSGWRLNADSVLWGGHKVFMVKPEEPFQPVKEATQL [S154Q]	0.0756	0.0669	0.0532	0.0777							0.0582	0.0683			0.101	0.099	0.157	0.0978	
MGESLFKGPRDYNPISSSICHLTNESDGHTTSLYGIGFGPFIITNKHLFRRNNGTLVVQSLHGVFKVKDTTTLQQHLVDGRDMIIIRMPKDFPPFPQKLKFREPQREERICLVTTNFQTKSMSSMVSDTSCTFPSGDGIFWKHWIQTKDGQCGSRLVSTRDGFIVGIHSASNFTNTNNYFTSVPKNFMELLTNQEAQQWVSGWRLNADSVLWGGHKVFMVKPEEPFQPVKEATQL [P155R]	0.0626	0.054	0.0483		0.065		0.055	0.0582	0.0485	0.0508		0.0501	0.0483	0.052	0.0523		0.0491		
MGESLFKGPRDYNPISSSICHLTNESDGHTTSLYGIGFGPFIITNKHLFRRNNGTLVVQSLHGVFKVKDTTTLQQHLVDGRDMIIIRMPKDFPPFPQKLKFREPQREERICLVTTNFQTKSMSSMVSDTSCTFPSGDGIFWKHWIQTKDGQCGSPLISTRDGFIVGIHSASNFTNTNNYFTSVPKNFMELLTNQEAQQWVSGWRLNADSVLWGGHKVFMVKPEEPFQPVKEATQL [V157I]	0.085	0.0738	0.0683		0.0602		0.0951	0.063	0.0665	0.124	0.058	0.0583	0.0763	0.0647	0.063		0.107		0.0631
MGESLFKGPRDYNPISSSICHLTNESDGHTTSLYGIGFGPFIITNKHLFRRNNGTLVVQSLHGVFKVKDTTTLQQHLVDGRDMIIIRMPKDFPPFPQKLKFREPQREERICLVTTNFQTKSMSSMVSDTSCTFPSGDGIFWKHWIQTKDGQCGSPLVMTRDGFIVGIHSASNFTNTNNYFTSVPKNFMELLTNQEAQQWVSGWRLNADSVLWGGHKVFMVKPEEPFQPVKEATQL [S158M]	0.0537	0.0599	0.0502	0.0473			0.0451	0.0632	0.0526	0.0641	0.054	0.0612	0.0558	0.0456	0.0422	0.0554	0.054	0.0652	
MGESLFKGPRDYNPISSSICHLTNESDGHTTSLYGIGFGPFIITNKHLFRRNNGTLVVQSLHGVFKVKDTTTLQQHLVDGRDMIIIRMPKDFPPFPQKLKFREPQREERICLVTTNFQTKSMSSMVSDTSCTFPSGDGIFWKHWIQTKDGQCGSPLVWTRDGFIVGIHSASNFTNTNNYFTSVPKNFMELLTNQEAQQWVSGWRLNADSVLWGGHKVFMVKPEEPFQPVKEATQL [S158W]	0.049	0.0483	0.0539	0.0608	0.0437	0.0441	0.0502	0.0484	0.0574	0.0543	0.0437	0.0466	0.0473	0.0511	0.0496	0.0572	0.0577	0.0556	
MGESLFKGPRDYNPISSSICHLTNESDGHTTSLYGIGFGPFIITNKHLFRRNNGTLVVQSLHGVFKVKDTTTLQQHLVDGRDMIIIRMPKDFPPFPQKLKFREPQREERICLVTTNFQTKSMSSMVSDTSCTFPSGDGIFWKHWIQTKDGQCGSPLVSRRDGFIVGIHSASNFTNTNNYFTSVPKNFMELLTNQEAQQWVSGWRLNADSVLWGGHKVFMVKPEEPFQPVKEATQL [T159R]	0.0689	0.0613		0.0844	0.0923				0.0838	0.139				0.0619	0.0333		0.163	0.0952	
MGESLFKGPRDYNPISSSICHLTNESDGHTTSLYGIGFGPFIITNKHLFRRNNGTLVVQSLHGVFKVKDTTTLQQHLVDGRDMIIIRMPKDFPPFPQKLKFREPQREERICLVTTNFQTKSMSSMVSDTSCTFPSGDGIFWKHWIQTKDGQCGSPLVSTRDGFRVGIHSASNFTNTNNYFTSVPKNFMELLTNQEAQQWVSGWRLNADSVLWGGHKVFMVKPEEPFQPVKEATQL [I164R]	0.0522	0.0466	0.0433	0.0547	0.052		0.0541		0.0562	0.0534	0.0571	0.0546	0.0661	0.0591		0.0609	0.0413	0.0794	0.0484
MGESLFKGPRDYNPISSSICHLTNESDGHTTSLYGIGFGPFIITNKHLFRRNNGTLVVQSLHGVFKVKDTTTLQQHLVDGRDMIIIRMPKDFPPFPQKLKFREPQREERICLVTTNFQTKSMSSMVSDTSCTFPSGDGIFWKHWIQTKDGQCGSPLVSTRDGFIVGIHQASNFTNTNNYFTSVPKNFMELLTNQEAQQWVSGWRLNADSVLWGGHKVFMVKPEEPFQPVKEATQL [S169Q]	0.0784	0.0619		0.0646	0.0614		0.055	0.0626	0.0559	0.0504	0.0642	0.0652	0.0491	0.0635	0.0628	0.0624	0.0679	0.0615	0.0475
MGESLFKGPRDYNPISSSICHLTNESDGHTTSLYGIGFGPFIITNKHLFRRNNGTLVVQSLHGVFKVKDTTTLQQHLVDGRDMIIIRMPKDFPPFPQKLKFREPQREERICLVTTNFQTKSMSSMVSDTSCTFPSGDGIFWKHWIQTKDGQCGSPLVSTRDGFIVGIHSAPNFTNTNNYFTSVPKNFMELLTNQEAQQWVSGWRLNADSVLWGGHKVFMVKPEEPFQPVKEATQL [S171P]	0.0472	0.0617	0.0659	0.0489	0.0622			0.058	0.062	0.0572	0.0524	0.0623	0.0433	0.0501	0.0623		0.0609	0.0459	0.0572
MGESLFKGPRDYNPISSSICHLTNESDGHTTSLYGIGFGPFIITNKHLFRRNNGTLVVQSLHGVFKVKDTTTLQQHLVDGRDMIIIRMPKDFPPFPQKLKFREPQREERICLVTTNFQTKSMSSMVSDTSCTFPSGDGIFWKHWIQTKDGQCGSPLVSTRDGFIVGIHSASNGTNTNNYFTSVPKNFMELLTNQEAQQWVSGWRLNADSVLWGGHKVFMVKPEEPFQPVKEATQL [F173G]	0.0632	0.0719					0.0528	0.0506	0.0601	0.0839	0.0743	0.0541			0.0595	0.0567	0.0748	0.0284	0.0534
MGESLFKGPRDYNPISSSICHLTNESDGHTTSLYGIGFGPFIITNKHLFRRNNGTLVVQSLHGVFKVKDTTTLQQHLVDGRDMIIIRMPKDFPPFPQKLKFREPQREERICLVTTNFQTKSMSSMVSDTSCTFPSGDGIFWKHWIQTKDGQCGSPLVSTRDGFIVGIHSASNQTNTNNYFTSVPKNFMELLTNQEAQQWVSGWRLNADSVLWGGHKVFMVKPEEPFQPVKEATQL [F173Q]	0.0735	0.067			0.0697	0.0823	0.0672		0.0574			0.0595	0.0551					0.0632	
MGESLFKGPRDYNPISSSICHLTNESDGHTTSLYGIGFGPFIITNKHLFRRNNGTLVVQSLHGVFKVKDTTTLQQHLVDGRDMIIIRMPKDFPPFPQKLKFREPQREERICLVTTNFQTKSMSSMVSDTSCTFPSGDGIFWKHWIQTKDGQCGSPLVSTRDGFIVGIHSASNFHNTNNYFTSVPKNFMELLTNQEAQQWVSGWRLNADSVLWGGHKVFMVKPEEPFQPVKEATQL [T174H]	0.0618		0.0623	0.0774		0.042	0.0662	0.073	0.0238	0.0913		0.055	0.0604	0.0641	0.0701	0.0354			0.0562
MGESLFKGPRDYNPISSSICHLTNESDGHTTSLYGIGFGPFIITNKHLFRRNNGTLVVQSLHGVFKVKDTTTLQQHLVDGRDMIIIRMPKDFPPFPQKLKFREPQREERICLVTTNFQTKSMSSMVSDTSCTFPSGDGIFWKHWIQTKDGQCGSPLVSTRDGFIVGIHSASNFTVTNNYFTSVPKNFMELLTNQEAQQWVSGWRLNADSVLWGGHKVFMVKPEEPFQPVKEATQL [N175V]	0.064	0.0689	0.0616	0.0479	0.0611		0.0723	0.0631		0.042		0.062	0.0568	0.0536		0.0651	0.0594	0.0547	0.072
MGESLFKGPRDYNPISSSICHLTNESDGHTTSLYGIGFGPFIITNKHLFRRNNGTLVVQSLHGVFKVKDTTTLQQHLVDGRDMIIIRMPKDFPPFPQKLKFREPQREERICLVTTNFQTKSMSSMVSDTSCTFPSGDGIFWKHWIQTKDGQCGSPLVSTRDGFIVGIHSASNFTNTKNYFTSVPKNFMELLTNQEAQQWVSGWRLNADSVLWGGHKVFMVKPEEPFQPVKEATQL [N177K]	0.0393		0.061	0.0838	0.0798		0.0597	0.0634	0.0705			0.0822	0.095		0.0718				
MGESLFKGPRDYNPISSSICHLTNESDGHTTSLYGIGFGPFIITNKHLFRRNNGTLVVQSLHGVFKVKDTTTLQQHLVDGRDMIIIRMPKDFPPFPQKLKFREPQREERICLVTTNFQTKSMSSMVSDTSCTFPSGDGIFWKHWIQTKDGQCGSPLVSTRDGFIVGIHSASNFTNTNTYFTSVPKNFMELLTNQEAQQWVSGWRLNADSVLWGGHKVFMVKPEEPFQPVKEATQL [N178T]	0.0709	0.0675	0.0305	0.0546	0.0591	0.0752	0.0359	0.055	0.0586	0.113		0.0631		0.0582	0.0516		0.0601		0.0605
